In all, about 220,000 compounds went through this assay and about 160 (0.073%) were called active. The shares of active, inactive and inconclusive entries below differ from those in the screen.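 The calls were made as follows: active = fold induction of absorbance versus untreated yeast above a set limit, then at least 30% activation at any dose in follow-up; inconclusive = repeats straddling the limit, or above it without dose testing; inactive = fold induction below the set limit.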
Assay: enhancers of respiration in Yfh1-depleted yeast, dose response, Friedreich's ataxia, plus single-dose screen (AID 1465)
Conditions: S. cerevisiae Yfh1-off respiration, WST-1 reduction, 72 h; at 50 µM; hits give high values

| Structure (SMILES) | fold induction |
| --- | --- |
| COCCNC(=O)Nc1ccc2nc(-c3ccco3)c(-c3ccco3)nc2c1 | inconclusive: 1.44 |
| Cc1cc(C(=O)N/N=C/c2ccccc2Br)no1 | inactive: 0.94 |
| Cc1cc(/C=N/NC(=O)c2ccccc2F)c(C)n1-c1ccccc1 | inactive: 1.02 |
| COc1c(C(=O)Nc2ccc3[nH]c(=O)[nH]c3c2)cc2ccccc2c1Br | inconclusive: 1.33 |
| O=C(CSC1=NCCS1)N1CCN(c2ccc(Cl)cc2)CC1 | inconclusive: 1.34 |
| CCNc1nc(NCC)nc(N2CC(=O)N(CC(=O)OCC)C2=N)n1 | inconclusive: 1.33 |
| Cn1cnnc1Sc1ccc(C(F)(F)F)cc1[N+](=O)[O-] | inconclusive: 1.35 |
| N#CC(=C=[N-])c1nc2ccccc2nc1-[n+]1ccccc1 | inconclusive: 1.33 |
| CCCc1cc(=O)n(-c2nc3ccccc3s2)[nH]1 | inactive: 1 |
| O=C(Cc1cscn1)c1ccc(O)cc1O | inconclusive: 1.33 |
| O=C(CSCc1ccccc1)NNC(=S)Nc1cccc(Cl)c1Cl | inconclusive: 1.2 |
| O=C(N/N=C/c1c(O)n(-c2ccccc2Cl)c(=O)c2ccccc12)c1cccnc1 | inactive: 1.49 |
| COc1ccc(/C=C2\Sc3ccc(C(=O)NCc4cccnc4)cc3N(C)C2=O)cc1OC | inactive: 1.1 |
| N#C/C(=C\c1ccc(-c2ccc(Br)cc2)o1)C(=O)NCCc1c[nH]c2ccccc12 | inconclusive: 1.39 |
| O=C(c1ccccc1)C(Cn1cncn1)C(Sc1ccccc1)c1ccccc1 (configuration not stated) | inconclusive: 1.2 |
| O=C(NNC1=C(C(=O)C(F)(F)F)CCC1)c1cccc(Cl)c1 | inconclusive: 1.77 |
| Oc1c(C2=NCCNC(C(F)(F)F)=C2)ccc2ccccc12 | inconclusive: 1.34 |
| Cc1ccc(-c2n[nH]c(=S)n2/N=C/C=C/c2ccccc2[N+](=O)[O-])cc1 | inconclusive: 1.38 |
| Cc1ccc(OCCn2cc(/C=C(\C#N)C(=O)NCC3CCCO3)c3ccccc32)cc1 (configuration not stated) | inconclusive: 1.33 |
| CCc1cc(N2CCOCC2)cc2c1[nH]c1ccccc12 | inconclusive: 1.33 |
| CCCC(=O)NC(c1ccc2c(c1)OCO2)c1cc(Cl)c2cccnc2c1O (configuration not stated) | inactive: 1.12 |
| O=C(Nc1ccc(Br)cn1)c1ccc([N+](=O)[O-])o1 | inconclusive: 1.33 |
| CC(=O)N1CCc2c(sc(NC(=O)c3ccc([N+](=O)[O-])o3)c2C#N)C1 | inconclusive: 1.35 |

| Structure (SMILES) | fold induction |
| --- | --- |
| COc1ccc(CCNc2nc(-c3sc(N)nc3C)cs2)cc1OC | inconclusive: 1.17 |
| CCN(CC)c1ccc2c(c1)OC(N)=C(C#N)C2c1cccnc1 (configuration not stated) | inconclusive: 1.86 |
| CC1=C(C#N)c2nc(N)c(C#N)c(C)c2/C1=C\c1ccc(-c2ccccc2C(=O)O)o1 | inconclusive: 1.34 |
| CCOC(=O)c1[nH]c2ccccc2c1NC(=O)C1CCCCC1 | inactive: 1.05 |
| COc1ccc(C(=O)COC(=O)c2ccc(N(C)C)cc2)cc1 | inactive: 1.01 |
| Cc1cc2nc3c(=O)n(Cc4ccccc4)c(=O)[nH]c3nc2cc1N | inconclusive: 1.34 |
| Nc1ccc(-n2c(N)c(C(=O)NCc3ccc4c(c3)OCO4)c3nc4ccccc4nc32)cc1 | inconclusive: 1.23 |
| Nc1ccc(N2CCN(C(=O)c3cccs3)CC2)cc1 | inconclusive: 1.37 |
| CCc1ccc(N2C(=O)CN(CC(=O)OC)C2=S)cc1 | inconclusive: 1.33 |
| O=C(Nc1ccccc1)c1cccc(-c2nnc(-c3ccccc3)o2)c1 | inconclusive: 1.21 |
| COc1cc([N+](=O)[O-])cc(/C=N/NC(=O)c2cc(C)nc3ccccc23)c1O | inactive: 1.4 |
| Cc1c(N/C=C/C(=O)c2ccc(Cl)cc2)c(=O)n(-c2ccccc2)n1C | inactive: 1 |
| O=C(N/N=C/c1ccc(O)cc1)c1ccc(COc2cc(Cl)ccc2Cl)o1 | inconclusive: 1.33 |
| COc1ccc(C)cc1-n1c(SCC(=O)Nc2cc(C)on2)nc2sc(C)c(C)c2c1=O | inconclusive: 1.25 |
| O=C(CCc1ccccc1)NC(NC(=S)Nc1ccc(Cl)cc1)C(Cl)(Cl)Cl (configuration not stated) | inconclusive: 1.09 |
| COc1cc(/C=C2/SC(=S)N(CC(=O)O)C2=O)ccc1OC(=O)c1cccs1 | inconclusive: 1.34 |
| CCC(=O)NC(c1ccccc1OC)c1ccc2cccnc2c1O (configuration not stated) | inactive: 0.67 |
| CC(C)C(=O)NC(c1ccco1)c1ccc2cccnc2c1O (configuration not stated) | inconclusive: 1.82 |
| CCSc1nc(=O)n(-c2ccccc2)c(C)c1C(C)=O | inactive: 1.05 |
| O=C(CS(=O)(=O)c1c[nH]c2ccccc12)N1CCCCCC1 | inactive: 1.02 |
| Cc1ccccc1/C=C1\SC(=S)N(/N=C/c2cc([N+](=O)[O-])ccc2O)C1=O | inconclusive: 1.64 |
| COc1ccc(C)cc1S(=O)(=O)Nc1cc(Cl)ccc1Cl | inactive: 0.94 |
| Nc1ncc([N+](=O)[O-])c(Oc2ccccc2F)n1 | inconclusive: 1.34 |

| Structure (SMILES) | fold induction |
| --- | --- |
| CC(=O)c1ccc(C(=O)Nc2nnc(-c3ccc(Cl)cc3)o2)cc1 | inconclusive: 1.32 |
| COC1=C(OC)C(=O)C(CCCCCCCCCCO)=C(C)C1=O | inconclusive: 2.65 |
| Cc1ccc(NC(=S)NNC(=S)NCc2ccccc2)cc1 | inconclusive: 1.25 |
| CC(C)(C)c1ccc(/C=N/NC(=S)NC2CCCCC2)cc1 | inconclusive: 1.35 |
| O=C1/C(=C/c2ccc(O)c(O)c2)Oc2cc(O)ccc21 | inconclusive: 1.37 |
| COc1ccc(-n2c(N)c(C(=O)NCc3ccco3)c3nc4ccccc4nc32)cc1 | inconclusive: 1.38 |
| COc1ccc(Cc2nn3c(-c4ccccc4OC)nnc3s2)cc1 | inconclusive: 1.33 |
| Cc1n[nH]c(C)c1S(=O)(=O)N1CCCC(C(=O)Nc2nccs2)C1 (configuration not stated) | inconclusive: 1.17 |
| COc1ccc(C(=O)NCC(=O)N/N=C/C=C/c2ccccc2)cc1OC | inactive: 0.96 |
| CCCCNC1=CC(=O)C(=O)c2ccccc21 | inactive: 2.68 |
| COc1ccccc1NC(=O)Cn1c(O)c(N=NC(=O)c2ccccc2O)c2ccccc21 | inconclusive: 1.33 |
| Cc1ccc(NS(=O)(=O)c2cc([N+](=O)[O-])ccc2NNC(=S)Nc2cc(C)ccc2C)c(C)c1 | inconclusive: 1.35 |
| Cc1ccc(NC2=C/C(=N\S(=O)(=O)c3cccs3)c3ccccc3C2=O)c(C)c1 | inconclusive: 2.11 |
| CC(Oc1cccc2c1OC(C)(C)C2)C(=O)O (configuration not stated) | inactive: 1.05 |
| CCN(CC)S(=O)(=O)c1ccc(N=Nc2c(C)[nH]n(C(N)=S)c2=O)cc1 | inconclusive: 1.45 |
| COC(=O)c1nc(NC2=NCCCCC2)n[nH]1 | inactive: 1.02 |
| Cc1ccc(SC2=C(Sc3ccc(C)cc3)C(=O)c3ccccc3C2=O)cc1 | inconclusive: 1.43 |
| Cc1cc(C)n(CC(=O)Nc2ccccc2)n1 | inactive: 1.01 |
| CCN(CC)c1ccc(/C=C(\C#N)C(N)=O)cc1 | inconclusive: 1.84 |
| CN1CC(=O)NC1=NC(=O)c1ccc(Cl)c(S(=O)(=O)N2CCCCCC2)c1 | inconclusive: 1.36 |
| Cc1cc(C(=O)NNC(=S)NC(C)c2ccccc2)c2ccccc2n1 (configuration not stated) | inconclusive: 1.23 |
| COc1cccc(N2C(=O)CC(Nc3ccc(N4CCOCC4)cc3)C2=O)c1 (configuration not stated) | inconclusive: 1.5 |
| CCOC(=O)c1c(N)sc(=S)c2c1CCC2 | inconclusive: 1.2 |

| Structure (SMILES) | fold induction |
| --- | --- |
| Clc1ccc(-c2n[nH]c3c2CCC3)cc1Cl | inactive: 0.777 |
| CC(=O)c1cc(-c2ccccc2)[nH]c1N1CCCC1 | inconclusive: 1.28 |
| Cc1cc(C)n2nc(-c3sccc3-n3c(C)ccc3C)cc2n1 | inactive: 1.01 |
| COC(=O)c1ccc(-c2ccco2)n1Cc1nc(-c2ccc(OC)c(OC)c2)oc1C | inconclusive: 1.2 |
| CCOc1ccc(Br)cc1C1C(C(=O)OC)=C(N)Oc2cc(N(C)C)ccc21 (configuration not stated) | inconclusive: 1.3 |
| Cc1ccsc1C1C(C#N)=C(N)Oc2n[nH]c(C)c21 (configuration not stated) | inconclusive: 1.33 |
| CCOC(=O)c1ccc(NNC(=O)CC)c([N+](=O)[O-])c1 | inactive: 1.03 |
| CC(=O)Nc1ccc(NC2=C/C(=N/S(=O)(=O)c3cccs3)c3ccccc3C2=O)cc1 | inconclusive: 1.33 |
| COc1ccc(C/C(O)=C(\C#N)c2nc3ccccc3[nH]2)cc1OC | inactive: 1.12 |
| O=C(NNC(=O)c1cccnc1)Nc1cccc(Cl)c1Cl | inactive: 0.89 |
| N#Cc1c(-c2ccccc2)c(-c2ccccc2)n(Cc2ccco2)c1NC(=O)c1cccs1 | inconclusive: 1.15 |
| Cc1ccc(NC(=O)C(C)S)cc1 (configuration not stated) | inconclusive: 1.43 |
| Cc1ccc(/C(N)=N/OC(=O)c2ccc(C)cc2Cl)cc1 | inconclusive: 1.34 |
| CC(=O)Nc1nc2cc3c(cc2s1)OCO3 | inactive: 0.99 |
| Cc1ccc(-n2c(N)c(C(=O)N3CCN(C)CC3)sc2=S)cc1 | inconclusive: 1.28 |
| O=C(Nc1nc(-c2cccs2)cs1)c1cccc(S(=O)(=O)N2CCCCCC2)c1 | inconclusive: 1.13 |
| CCOC(=O)c1c(C)oc2c1c(C=NCCO)c(O)c1ccccc12 | inactive: 1.38 |
| CCn1nc(C(=O)OCC(=O)Nc2nc(-c3ccc(OC)cc3)cs2)c2ccccc2c1=O | inconclusive: 1.35 |
| Cn1cnc([N+](=O)[O-])c1Sc1ccccc1 | inconclusive: 1.44 |
| Cc1cc(=O)[nH]c(-n2nc(C)cc2C)n1 | inconclusive: 1.06 |
| O=C(O)CC(NC(=O)Cc1ccc([N+](=O)[O-])cc1)c1ccc2c(c1)OCO2 (configuration not stated) | inactive: 1 |
| CC(C)=CCN1CCN(CCCn2cccn2)CC1CCO (configuration not stated) | inconclusive: 1.34 |
| CN(C(=S)Nc1ccc(Oc2ccccc2)cc1)c1ccc(O)cc1 | inconclusive: 1.35 |
